Experimental data reported in PubChem BioAssay AID651820 (National Center for Advancing Translational Sciences (NCATS), 2012).
The campaign covered roughly 340,000 compounds. About 12,000 (3.5%) were called active. The inconclusive results got no clear call from the source; some entries with a clear call stand among them for comparison. Calls follow the shape of the dose curve; as a rule, active = well fitted inhibition curve with a large enough effect; inconclusive = small, poorly fitted or top-dose-only effect, or another doubt; inactive = no such curve, though single readings can be large or run the other way. Potencies of inconclusive entries are left out as doubtful fits.

assay: qHTS Assay for Inhibitors of Hepatitis C Virus (HCV); details: Huh7.5.1 HCVcc-Cre (HCVcc is cell-culture hepatitis C virus) infection, luciferase reporter, 44 h; series mostly up to 41.8 µM
Method in brief: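 Cells seeded at 1,000/well and cultured 4 h, then compounds added followed by HCVcc-Cre virus (~0.5 moi). After 44 h further culture, luciferase substrate was added, plates held 15 min at room temperature, and luminescence read for 15 sec.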
Potency is read from the fitted curve at half-maximal effect; tags tell the direction and shape of the fitted curve.

Row | Compound | Potency
1 | CCc1nonc1NC(=O)c1oc2ccc(F)cc2c1C | inactive
2 | O=C(NC1CCN(Cc2ccccc2)CC1)c1cccc(S(=O)(=O)Nc2ccc(F)cc2)c1 | inconclusive [inhibitor, partial curve]
3 | COc1ccc(CNC(=O)[C@H](C)NC(=O)C2CCN(S(=O)(=O)c3ccc(F)cc3)CC2)cc1 | inactive
4 | O=C(Nc1cccc(Cl)c1)Nc1ccc(Br)cc1F | inconclusive [inhibitor, single point]
5 | CCOc1ccc(NC(=O)N2CCC(NC(=O)C(Cc3ccccc3OC)NC(C)=O)CC2)cc1 (stereo not drawn) | inactive
6 | COc1ccc(NC(=O)CCCNC(=O)c2ccc(Cl)cc2)cc1S(=O)(=O)N1CCCCC1 | inconclusive [inhibitor, single point]
7 | Cc1cc(C)n(CCCN2CCC(C(=O)Nc3cccc(-c4cccc(F)c4)c3)CC2)n1 | inconclusive [inhibitor, partial curve]
8 | CC(NS(=O)(=O)c1ccc(Br)cc1)C(N)=O (stereo not drawn) | inconclusive [inhibitor, partial curve, poor fit]
9 | Cc1cccc(OCC(=O)NC(Cc2c[nH]c3ccccc23)C(=O)O)c1C (stereo not drawn) | inactive
10 | CCOCCn1c(C(C)O)nc2ccccc21 (stereo not drawn) | inactive
11 | O=C(C1CCCN(S(=O)(=O)c2cccc3cccnc23)C1)N1CCN(c2ccc(F)cc2)CC1 (stereo not drawn) | inconclusive [inhibitor, single point]
12 | CCOC(=O)N1CCN(C(=O)c2ccc(CN(c3ccc(C)c(C)c3)S(C)(=O)=O)cc2)CC1 | inconclusive [inhibitor, single point]
13 | Nc1ncnc2c1C1(CCCCC1)Cc1ccccc1-2 | inactive
14 | Nc1nc(SCc2ccccc2[N+](=O)[O-])c2ncn(Cc3ccccc3)c2n1 | active: 11.2 µM
15 | C=CCSC1=C(C#N)C(c2ccccc2Cl)C(C(=O)c2cccs2)C(O)(C(F)(F)F)N1 (stereo not drawn) | inconclusive [inhibitor, partial curve]
16 | CC(=O)N1N=C(c2cccc([N+](=O)[O-])c2)OC1(C)c1cccs1 (stereo not drawn) | inconclusive [inhibitor, partial curve]
17 | CN(C)S(=O)(=O)N1CCC(Oc2cccc(C(=O)NC3CCCCCC3)c2)CC1 | active: 2.82 µM
18 | CCOc1ccc(CCNC(=O)C2CC(=O)N(Cc3ccc(OC)cc3)C2)cc1OCC (stereo not drawn) | inconclusive [inhibitor, partial curve]
19 | Cn1ccnc1COc1ccc(C=O)cc1 | inactive
20 | O=C(Nc1cc(S(=O)(=O)N2CCCCC2)ccc1Cl)C1COc2ccccc2O1 (stereo not drawn) | active: 11.2 µM
21 | COc1cc(/C=C/C(=O)OCC(=O)NNC(=O)c2cc(Cl)ccc2OC)ccc1O | inconclusive [inhibitor, partial curve]
22 | Cc1ccc2[nH]c(C(=O)Nc3ccc(F)cc3)cc2c1 | inactive
23 | Cc1nn2c(NCc3cccnc3)c3c(nc2c1-c1ccccc1)CCC3 | inactive
24 | CSc1cccc(NC(=O)C2CCCN(c3ncnc4c3nc3n4CCCCC3)C2)c1 (stereo not drawn) | active: 22.4 µM
25 | O=C(CCCc1ccccc1)NCc1ccccc1Cl | inactive

Row | Compound | Potency
26 | O=C(COC(=O)c1ccc(F)cc1)NCC1COc2ccccc2O1 (stereo not drawn) | inactive
27 | COc1ccc(/C=N/NC(=O)c2ccc(C)cc2)cc1CN1CCN(c2ccc(F)cc2)CC1 | inconclusive [inhibitor, single point]
28 | CCOC(=O)c1c(C)[nH]c(C(=O)C(C)OC(=O)c2cccc(OCc3c(C)noc3C)c2)c1C (stereo not drawn) | inconclusive [inhibitor, single point]
29 | COC(=O)c1cn(CCOc2ccc(C)cc2)c2ccccc12 | inconclusive [inhibitor, partial curve]
30 | c1ccc(-c2cc(-c3ccccc3)[n+](-c3ccccc3)c(-c3ccccc3)c2)cc1 | inconclusive [inhibitor, single point]
31 | O=C(COc1ccc(Cl)cc1)NC1CCSC1=O (stereo not drawn) | inactive
32 | O=C1c2ccccc2C(=O)N1CCc1c[nH]c2ccccc12 | inconclusive [inhibitor, full curve]
33 | CC(Sc1nnc2c(n1)C1CCC2(C)C1(C)C)C(=O)Nc1ccccc1 (stereo not drawn) | inconclusive [inhibitor, single point]
34 | CC(=O)Nc1ccc(Oc2sc(C(=O)c3ccccc3)c(N)c2C#N)cc1 | inconclusive [inhibitor, single point]
35 | CC1CN(C(=S)SCCN2C(=O)CCC2=O)CC(C)O1 (stereo not drawn) | inactive
36 | CSC(=S)N/N=C/c1ccccc1 | inactive
37 | COc1ccc(CCNC(=O)c2[nH]c(C)c(C(C)=O)c2C)cc1OC | inconclusive [inhibitor, partial curve]
38 | Cn1c(N/N=C/c2cc3ccccc3nc2Cl)nc2ccccc21 | inconclusive [inhibitor, single point]
39 | N#Cc1cc2c(nc1SCC1COc3ccccc3O1)CCC2 (stereo not drawn) | inconclusive [inhibitor, single point]
40 | COc1cc(NC(=O)c2cc3ccccc3cc2O)c(OC)cc1Cl | active: 10 µM
41 | Cc1cccc(-c2nnc(SCC(=O)N3CCCC3)o2)c1 | inactive
42 | Clc1ccc(OCCCn2ccnc2)c(Br)c1 | inconclusive [inhibitor, single point]
43 | N#Cc1ccccc1OCC(=O)Nc1ccccc1C(=O)NC1CC1 | inconclusive [inhibitor, single point]
44 | O=C(NCCC(c1ccccc1)c1ccccc1)c1ccc(Br)o1 | inconclusive [inhibitor, single point]
45 | COC(=O)[C@@H](Cc1c[nH]c2ccccc12)NC(=O)C1CCCN(S(=O)(=O)c2ccc(C)cc2)C1 (stereo partly drawn) | inactive
46 | O=C(CN1CCN(CC(=O)Nc2ccc3c(c2)OC2(CCCCC2)O3)CC1)Nc1cccc(F)c1 | inconclusive [inhibitor, single point]
47 | COc1ccc(C2CC(c3ccccc3OC(C)=O)=NN2C(=O)/C=C/c2ccccc2)cc1OC (stereo not drawn) | inactive
48 | Cn1c(C(=O)NCc2cccs2)cc2oc3ccccc3c21 | inconclusive [inhibitor, single point]
49 | O=C(CC1C(=O)NCCN1Cc1ccccc1C(F)(F)F)NC1CCCCCC1 (stereo not drawn) | inconclusive [inhibitor, single point]
50 | COc1ccccc1/C=C/CN1CCC(n2nccc2NC(=O)CCc2ccccc2)CC1 | active: 3.55 µM

Row | Compound | Potency
51 | O=C(CSc1ncnc2ccccc12)Nc1ccc2c(c1)OCCO2 | inconclusive [inhibitor, single point]
52 | CN(CC(=O)Nc1ncn[nH]1)S(=O)(=O)c1cc(Cl)ccc1Cl | inactive
53 | CCOc1ccc(/C=C2\SC(=S)N(CCC(=O)N(CCO)c3ccccc3)C2=O)cc1 | inconclusive [inhibitor, single point]
54 | Cc1ccc(C)c(N2CCN(C(=O)C3CCCCN3S(=O)(=O)c3ccc(F)cc3)CC2)c1 (stereo not drawn) | inconclusive [inhibitor, single point]
55 | COc1ccc(Cl)cc1NC(=O)c1cc(-c2ccccc2O)n[nH]1 | inconclusive [inhibitor, partial curve, poor fit]
56 | CCOC(=O)C1CCN(CC(=O)Nc2cc(S(=O)(=O)N3CCCCC3)ccc2Cl)CC1 | inconclusive [inhibitor, partial curve]
57 | CCCOC(=O)/C(=C\c1ccc([N+](=O)[O-])o1)NC(=O)c1ccccc1 | active: 14.1 µM
58 | CCCCOc1ccc(S(=O)(=O)Nc2cc(OC)ccc2OC)cc1 | active: 10 µM
59 | Fc1ccc(/C=N/n2c(C3CCCCC3)n[nH]c2=S)cc1 | inactive
60 | CCOc1ccc(NC(=O)CSc2ncc(-c3ccc(F)cc3)n2Cc2ccco2)cc1 | active: 10 µM
61 | CC(C)=CCCC(C)CN1CCC(n2nccc2NC(=O)c2ccccc2)CC1 (stereo not drawn) | inconclusive [inhibitor, partial curve]
62 | COc1cccc2cc(C(=O)N3CCN(C/C=C/c4ccccc4)CC3)c(=O)oc12 | inconclusive [inhibitor, full curve, poor fit]
63 | COc1cc([N+](=O)[O-])ccc1NC(=O)CCCOc1cc(C)ccc1C | inconclusive [inhibitor, partial curve]
64 | COc1ccc(S(=O)(=O)N2CCCCCC2)cc1NC(=O)CN(C)Cc1ccc2c(c1)OCO2 | active: 11.2 µM
65 | Cc1cnc(CN(C)C(=O)c2cc(COc3c(F)cccc3F)on2)[nH]1 | inactive
66 | CC(C)(C)OC(=O)NCCCCCNC(=O)c1nc[nH]c1C(=O)NCCCCCNC(=O)OC(C)(C)C | active: 10 µM
67 | CN(C)CCNC(=S)Nc1ccc(Cl)cc1Cl | inactive
68 | COc1cc(NCCCCCCCN)c2ncccc2c1 | inactive
69 | Cc1ccc(O)c(N=NC2=C(O)CC(C)(C)CC2=O)c1 | inconclusive [inhibitor, partial curve]
70 | NC(=O)c1oc2ccccc2c1NC(=O)c1ccc([N+](=O)[O-])o1 | inconclusive [inhibitor, partial curve]
71 | COc1ccc(-n2nc([N+](=O)[O-])c(=NCc3ccc4c(c3)OCO4)n2O)cc1 | inconclusive [inhibitor, single point]
72 | CCOc1ccccc1NC(=O)NNC(=O)COc1cccc(C)c1C | inconclusive [inhibitor, partial curve]
73 | O=C(c1cccs1)c1no[n+]([O-])c1C(=O)c1cccs1 | active: 10 µM
